Data taken from patent publication US20240124575A1 (SIMCERE ZAIMING PHARMACEUTICAL, published 2024).
Values belong to the binder of their own block, whether it stands above or below them.

Assays:
[1] = molecular target: T1, human CD33 on U937 cells (endogenous) (human, UniProt P20138); assay: FACS, U937 cells
T1 construct: whole, on cells

[2] = molecular target: T2, human CD33-His (extracellular domain Asp 18-His 259) (human, UniProt P20138 18-259); assay: ELISA, antigen coated
T2 construct: range 18-259; bought protein; also called hCD33-his; human CD33 protein; not shown: His tag

[3] = molecular target: T3, human CD33 on CHO-K1 cells (CHO-K1-human CD33) (human, UniProt P20138); assay: FACS, CHO-K1-human CD33 cells
T3 construct: whole, on cells; stably transfected CHO-K1 clones; also called CHO-K1-hCD33-B8; CHO-K1-human CD33 B8

[4] = molecular target: T4, human CD33-V-his (human, UniProt P20138 18-144); assay: ELISA on coated human CD33-V-his
T4 construct: expressed in HEK293E; also called hCD33-V-his; human CD33 protein V-domain; not shown: His tag

[5] = molecular target: T5, monkey CD33 on HEK293T-monkey CD33 cells (monkey); assay: FACS on HEK293T-monkey CD33 cells
T5 construct: whole, on cells

[6] = molecular target: T6, murine CD33 protein (murine, UniProt Q63994 18-240, limits assumed); assay: ELISA, coated murine CD33, antibody 1 nM
T6 construct: The printed catalogue numbers for murine and monkey CD33 may be interchanged; also called murine CD33-His protein
T6 sequence (looked up): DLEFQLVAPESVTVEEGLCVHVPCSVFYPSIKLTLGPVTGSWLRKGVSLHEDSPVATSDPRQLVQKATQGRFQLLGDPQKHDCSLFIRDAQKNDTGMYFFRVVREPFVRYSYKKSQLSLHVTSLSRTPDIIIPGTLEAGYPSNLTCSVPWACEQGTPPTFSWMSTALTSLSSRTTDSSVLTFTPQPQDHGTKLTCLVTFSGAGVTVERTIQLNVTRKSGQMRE

[7] = molecular target: T7, monkey CD33 protein (monkey); assay: ELISA, coated monkey CD33, antibody 1 nM
T7 construct: The printed catalogue numbers for murine and monkey CD33 may be interchanged; also called monkey CD33-His protein

[8] = molecular target: T6, murine CD33 protein; assay: ELISA, coated murine CD33, antibody 10 nM
[9] = molecular target: T7, monkey CD33 protein; assay: ELISA, coated monkey CD33, antibody 10 nM
[10] = molecular target: T6, murine CD33 protein; assay: ELISA, coated murine CD33, antibody 0.1 nM
[11] = molecular target: T6, murine CD33 protein; assay: ELISA, coated murine CD33, antibody 100 nM
[12] = molecular target: T7, monkey CD33 protein; assay: ELISA, coated monkey CD33, antibody 0.1 nM
[13] = molecular target: T7, monkey CD33 protein; assay: ELISA, coated monkey CD33, antibody 100 nM
[14] = molecular target: T6, murine CD33 protein; assay: ELISA, coated murine CD33, antibody 0.01 nM
[15] = molecular target: T7, monkey CD33 protein; assay: ELISA, coated monkey CD33, antibody 0.01 nM
[16] = molecular target: T6, murine CD33 protein; assay: ELISA, coated murine CD33, antibody 0.001 nM
[17] = molecular target: T7, monkey CD33 protein; assay: ELISA, coated monkey CD33, antibody 0.001 nM
[18] = molecular target: T6, murine CD33 protein; assay: ELISA, coated murine CD33, antibody 0.0001 nM
[19] = molecular target: T7, monkey CD33 protein; assay: ELISA, coated monkey CD33, antibody 0.0001 nM
[20] = molecular target: T8, human CD33-His (human, UniProt P20138 18-259); assay: SPR (Biacore), antibody captured on Protein A chip, human CD33-his as analyte
T8 construct: range 18-259; Bought protein; also called human CD33-his protein; hCD33-his; not shown: His tag

[21] = molecular target: T7, monkey CD33 protein; assay: SPR (Biacore), antibody captured on Protein A chip, monkey CD33 protein as analyte

human CD33-V-his, sequence (P20138 other isoform, or with tags, fused parts or gaps limits assumed): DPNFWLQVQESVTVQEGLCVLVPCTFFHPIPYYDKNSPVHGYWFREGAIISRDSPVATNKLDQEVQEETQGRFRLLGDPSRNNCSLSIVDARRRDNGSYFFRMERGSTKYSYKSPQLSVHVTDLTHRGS

B1: S006-NB146-139 (Fc fusion)
chain: QLQLVESGGGLVQPGGSLRLSCAAPGIILDYYPIGWFRQAPGKEREGVSYITSSDDSTVYTYYTDSVKGRFTISRGKNTVYLQMNSLKPEDTAVYYCAARSTYIVGRNYHTLNSSDFDYWGQGTQVTVSS[letters of human IgG1 Fc with changes left out]
notes: also called VHH-Fc
- EC50 [1]: 25.6 nM
- Max MFI [1]: 599 MFI
- OD450 at 0.0001 nM [2]: 0.04 OD450
- OD450 at 0.001 nM [2]: 0.06 OD450
- OD450 at 0.01 nM [2]: 0.14 OD450
- OD450 at 0.1 nM [2]: 0.57 OD450
- OD450 at 1 nM [2]: 1.39 OD450
- OD450 at 10 nM [2]: 2.16 OD450
- OD450 at 100 nM [2]: 1.95 OD450
- EC50 [3]: 14.6 nM
- Max MFI [3]: 11900 MFI
- binding result [4]: no binding (tested: 100 nM)

B2: S006-NB146-139 (Fc fusion)
chain: QLQLVESGGGLVQPGGSLRLSCAAPGIILDYYPIGWFRQAPGKEREGVSYITSSDDSTVYTYYTDSVKGRFTISRGKNTVYLQMNSLKPEDTAVYYCAARSTYIVGRNYHTLNSSDFDYWGQGTQVTVSS[letters of human IgG1 Fc with changes left out]
- EC50 [5]: 25 nM
- Max MFI [5]: 3950 MFI
- OD450 [6]: 0.09 OD450
- OD450 [7]: 2.27 OD450
- OD450 [8]: 0.06 OD450
- OD450 [9]: 2.52 OD450
- OD450 [10]: 0.06 OD450
- OD450 [11]: 0.07 OD450
- OD450 [12]: 1.39 OD450
- OD450 [13]: 2.46 OD450
- OD450 [14]: 0.06 OD450
- OD450 [15]: 0.45 OD450
- OD450 [16]: 0.06 OD450
- OD450 [17]: 0.09 OD450
- OD450 [18]: 0.06 OD450
- OD450 [19]: 0.05 OD450
- Kd [20]: 13.5 nM
- koff [20]: 0.00401 s⁻¹
- kon [20]: 297000 M⁻¹ s⁻¹
- Kd [21]: 30.1 nM
- koff [21]: 0.0278 s⁻¹
- kon [21]: 925000 M⁻¹ s⁻¹

B4: S006-NB146-173 (Fc fusion)
chain: QVQLVESGGGLVQAGGSLRLSCAASGSTLSLHSMGWYRQAAGRQRELVAGISRDGDSNYLSSLAGRFFISRDGTKNTVYLQMTSLKPEDTAVYYCNARTSPWSAALWGQGTQVTVSS[letters of human IgG1 Fc with changes left out]
notes: also called VHH-Fc
- EC50 [1]: 30.9 nM
- Max MFI [1]: 575 MFI
- OD450 at 0.0001 nM [2]: 0.06 OD450
- OD450 at 0.001 nM [2]: 0.09 OD450
- OD450 at 0.01 nM [2]: 0.43 OD450
- OD450 at 0.1 nM [2]: 0.91 OD450
- OD450 at 1 nM [2]: 2.13 OD450
- OD450 at 10 nM [2]: 2.21 OD450
- OD450 at 100 nM [2]: 2.25 OD450
- EC50 [3]: 28.1 nM
- Max MFI [3]: 11400 MFI
- binding result [4]: no binding (tested: 100 nM)

B5: S006-NB146-173 (Fc fusion)
chain: QVQLVESGGGLVQAGGSLRLSCAASGSTLSLHSMGWYRQAAGRQRELVAGISRDGDSNYLSSLAGRFFISRDGTKNTVYLQMTSLKPEDTAVYYCNARTSPWSAALWGQGTQVTVSS[letters of human IgG1 Fc with changes left out]
- EC50 [5]: 39.4 nM
- Max MFI [5]: 5080 MFI
- OD450 [6]: 0.13 OD450
- OD450 [7]: 2.15 OD450
- OD450 [8]: 0.46 OD450
- OD450 [9]: 2.5 OD450
- OD450 [10]: 0.07 OD450
- OD450 [11]: 0.94 OD450
- OD450 [12]: 1.6 OD450
- OD450 [13]: 2.49 OD450
- OD450 [14]: 0.06 OD450
- OD450 [15]: 0.91 OD450
- OD450 [16]: 0.06 OD450
- OD450 [17]: 0.17 OD450
- OD450 [18]: 0.06 OD450
- OD450 [19]: 0.07 OD450
- Kd [20]: 23.8 nM
- koff [20]: 0.00172 s⁻¹
- kon [20]: 72500 M⁻¹ s⁻¹
- Kd [21]: 27.4 nM
- koff [21]: 0.00424 s⁻¹
- kon [21]: 155000 M⁻¹ s⁻¹

The remaining binders from weak to strong by EC50 [1], led by results:

- EC50 [1]: ~22.7 nM
- Max MFI [1]: 301 MFI
- OD450 at 0.0001 nM [2]: 0.05 OD450
- OD450 at 0.001 nM [2]: 0.09 OD450
- OD450 at 0.01 nM [2]: 0.3 OD450
- OD450 at 0.1 nM [2]: 0.5 OD450
- OD450 at 1 nM [2]: 2.06 OD450
- OD450 at 10 nM [2]: 1.92 OD450
- OD450 at 100 nM [2]: 1.84 OD450
- EC50 [3]: 96.5 nM
- Max MFI [3]: 5950 MFI
- binding result [4]: no binding (tested: 100 nM)
B3: S006-NB146-69 (Fc fusion)
chain: EVQVVESGGGLVQAGGSLSLSCAASGSIFTINIMGWYRQAPGKQRELVAQINRVGDTNYPNSMAERFTISRDNAKNTMYLQMNTLKPEDTAVYYCNADIVESGRYSGKDYWGKGTLVTVSL[letters of human IgG1 Fc with changes left out]
notes: also called VHH-Fc

- EC50 [1]: ~18.5 nM
- Max MFI [1]: 234 MFI
- OD450 at 0.0001 nM [2]: 0.05 OD450
- OD450 at 0.001 nM [2]: 0.06 OD450
- OD450 at 0.01 nM [2]: 0.19 OD450
- OD450 at 0.1 nM [2]: 0.73 OD450
- OD450 at 1 nM [2]: 1.87 OD450
- OD450 at 10 nM [2]: 2.18 OD450
- OD450 at 100 nM [2]: 2.35 OD450
- EC50 [3]: 49.9 nM
- Max MFI [3]: 9780 MFI
- binding result [4]: no binding (tested: 100 nM)
B6: S006-NB147-25 (Fc fusion)
chain: QLQLVESGGGLVQAGGSLRLSCKASGVTFSINALGWYRQAPGKQREMVAVISSGGSTNYVDSVKGRFTISRDNAKNTVYLQMNSLKPEDTAVYYCNADVVGSSWSPEYDYWGQGTQVTVST[letters of human IgG1 Fc with changes left out]
notes: also called VHH-Fc

- EC50 [1]: 8.6 nM
- Max MFI [1]: 394 MFI
- OD450 at 0.0001 nM [2]: 0.04 OD450
- OD450 at 0.001 nM [2]: 0.06 OD450
- OD450 at 0.01 nM [2]: 0.17 OD450
- OD450 at 0.1 nM [2]: 0.46 OD450
- OD450 at 1 nM [2]: 1.86 OD450
- OD450 at 10 nM [2]: 1.92 OD450
- OD450 at 100 nM [2]: 2.17 OD450
- EC50 [3]: 52 nM
- Max MFI [3]: 10000 MFI
- binding result [4]: no binding (tested: 100 nM)
B7: S006-NB147-220 (Fc fusion)
chain: QLQLVESGGGMVQPGGSLRLSCAASGFTLDYYAIGWFRQAPGKEREGVSCINSGDSSTYYADSVKGRFTISRDNAENTVYLQMNSLKPEDTAVYYCATVDTLIVAGNLEECRYDMDYWGKGTLVTVSS[letters of human IgG1 Fc with changes left out]
notes: also called VHH-Fc
